Results from paper PMC4336329 (PLoS ONE, 2015).
Hit rate of the full screen: of about 310,000 compounds, about 14,000 (4.5%) showed an effect of 50% or more. Effects have a minus sign here. The list shows a part of the results.

target: human ether-à-go-go-related gene (hERG) potassium channel (human, UniProt Q12809); assay: primary screen, population patch clamp on CHO cells stably expressing hERG
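Further: peak tail current of the secondary pulse compared with the same well before compound.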

Sequence of human ether-à-go-go-related gene (hERG) potassium channel (Q12809 whole entry, looked up): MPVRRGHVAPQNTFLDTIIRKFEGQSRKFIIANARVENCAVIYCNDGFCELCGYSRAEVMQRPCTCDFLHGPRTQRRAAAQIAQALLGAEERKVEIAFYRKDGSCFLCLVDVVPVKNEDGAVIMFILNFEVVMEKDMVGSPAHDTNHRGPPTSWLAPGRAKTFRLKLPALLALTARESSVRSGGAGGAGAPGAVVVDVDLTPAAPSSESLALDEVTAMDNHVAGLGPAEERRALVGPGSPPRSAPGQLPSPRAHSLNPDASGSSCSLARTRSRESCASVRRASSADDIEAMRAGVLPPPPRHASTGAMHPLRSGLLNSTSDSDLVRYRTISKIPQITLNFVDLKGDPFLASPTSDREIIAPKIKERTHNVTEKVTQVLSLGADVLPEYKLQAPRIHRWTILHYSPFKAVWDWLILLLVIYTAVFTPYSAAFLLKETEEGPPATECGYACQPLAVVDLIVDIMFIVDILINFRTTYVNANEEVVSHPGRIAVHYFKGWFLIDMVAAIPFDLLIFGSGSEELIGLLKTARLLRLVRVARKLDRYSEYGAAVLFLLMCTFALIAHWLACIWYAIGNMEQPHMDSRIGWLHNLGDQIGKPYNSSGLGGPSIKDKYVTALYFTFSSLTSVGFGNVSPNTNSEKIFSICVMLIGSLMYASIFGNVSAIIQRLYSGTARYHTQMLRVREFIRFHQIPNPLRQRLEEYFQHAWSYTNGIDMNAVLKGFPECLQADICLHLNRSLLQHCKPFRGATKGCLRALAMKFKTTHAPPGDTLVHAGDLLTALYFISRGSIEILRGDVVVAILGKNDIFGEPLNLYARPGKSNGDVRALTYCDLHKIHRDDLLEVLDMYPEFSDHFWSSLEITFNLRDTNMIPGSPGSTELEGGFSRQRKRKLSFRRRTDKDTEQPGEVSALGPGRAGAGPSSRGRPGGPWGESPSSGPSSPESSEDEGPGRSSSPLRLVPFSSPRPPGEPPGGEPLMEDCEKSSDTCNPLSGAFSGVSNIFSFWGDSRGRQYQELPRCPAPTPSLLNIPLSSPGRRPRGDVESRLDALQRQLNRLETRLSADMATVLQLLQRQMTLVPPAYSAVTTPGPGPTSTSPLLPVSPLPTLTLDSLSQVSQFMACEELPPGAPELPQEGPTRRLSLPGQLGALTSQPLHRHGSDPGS

SMILES	hERG current change (%, negative = inhibition) at 10uM [%]
CN(c1ccccc1)S(=O)(=O)c1cccc(NS(=O)(=O)c2ccc(/C=C/C(=O)O)cc2)c1	5.18
O=c1oc2ccccc2c(NC2CCCCC2)c1NS(=O)(=O)c1ccc(Br)cc1	-18.7
CCNc1nc(Oc2ccc(C#N)cc2)cc(C(F)(F)F)n1	4.41
CCN1CCN(CCNC(=O)Cn2c(=O)c3cccn3c3ccc(F)cc32)CC1	-2.61
CC1CCc2cc(F)cc3c(=O)c(C(=O)O)cn1c23 (stereo not drawn)	13
COc1ccc(C2CC(=O)n3nc(C45CC6CC(CC(C6)C4)C5)nc3S2)cc1OC (stereo not drawn)	26.1
Cc1cc(C)cc(C(=O)NC(CC(N)=O)c2ccc(N3CCC(Cc4ccccc4)CC3)c([N+](=O)[O-])c2)c1 (stereo not drawn)	8.2
COC(=O)C1=C(C)NC(=O)/C1=C\N(C)C	18
COc1ccc(C(=O)NCc2nnc(SCC(=O)NC3CCCCC3)o2)cc1	17.2
CC1(C)CC(n2[nH]c(=O)c3c2NC(=O)CSC3c2ccccc2)CCO1 (stereo not drawn)	11.6
N#Cc1nc(-c2ccco2)oc1N1CCC(Cc2ccccc2)CC1	0.874
Cc1ccccc1C(=O)N/N=C/c1ccc(OCC(=O)N2CCCCC2)cc1	4.38
Cn1c(=O)n(Cc2ccc(Cl)cc2)c(=O)c2c1nc1n2CCN1Cc1ccco1	-21.5
CNC(=O)c1[nH]cnc1C(=O)Nc1ccc(C)cc1	10.9
Cc1nn(C)c(C(=O)N/N=C/c2cc3c(cc2Br)OCO3)c1Br	11.2
CC1=C(C(=O)OCC2CCCO2)C(c2ccccc2Cl)NC(=O)N1 (stereo not drawn)	14.1
Cc1ccc2c(c1)C1(SCCS1)C(=O)N2	13.2
COCCn1c(SC(C)C(=O)NC2CC2)nnc1-c1cccc(C)c1 (stereo not drawn)	6.4
O=C(Nc1ccc(N2CCCCC2)c(Cl)c1)c1ccc2c(c1)OCCO2	-1.06
O=C(CNC(=O)c1ccco1)OCc1ccc(C(=O)c2ccccc2)cc1	-69.2
CC(CCCC(C)(C)O)NC(=O)c1ccc2oc(CCc3ccccc3)nc2c1 (stereo not drawn)	12.4
Cc1nn(-c2ccccc2)c2nc3c(cc12)C(=O)CCC3	-7.63
Cc1ccccc1C(=O)c1cccn1CC(=O)NCc1cccc(Cl)c1	20.2
O=C(COC(=O)C1CC1)Nc1ccc([N+](=O)[O-])cc1C(F)(F)F	-7.44
C=CCNCc1cccn1-c1ccccc1.O=C(O)C(=O)O	8.54
O=C(CCS(=O)(=O)c1cc(Br)cc2c1N(C(=O)C1CC1)CC2)NCC1CCCO1 (stereo not drawn)	10.8
COc1cc(/C=C2\C(=N)N3N=C(S(C)(=O)=O)SC3=NC2=O)ccc1OS(=O)(=O)c1ccccc1	24.3

SMILES	hERG current change (%, negative = inhibition) at 10uM [%]
CN(C)CCn1cnc2c(c1=N)C(c1ccccc1)c1ccc3ccccc3c1O2 (stereo not drawn)	-79.2
O=S(=O)(c1ccc2c(c1)OCCO2)N1CCC(c2nc3ccc(Cl)cc3[nH]2)CC1	-56.6
Cc1ccc(S(=O)(=O)N2CCN(Cc3cccc(F)c3)CC2)cc1	-9.78
CCCCCC(=O)Cc1cc(O)cc2c1C(=O)Oc1cc(O)c(C(=O)O)c(CCCCC)c1O2	8.9
Cc1nc(C(F)(F)F)ccc1C(=O)Nc1ccccc1N1CCOCC1	12.2
Cc1cc2ccccn2c1C(=O)c1cc([N+](=O)[O-])cc([N+](=O)[O-])c1	12.1
COCCN(C(=O)CC1C(=O)NCCN1Cc1ccc(-c2ccccc2)cc1)C(C)C (stereo not drawn)	1
N#C/C(=N\Nc1ccc(Cl)cc1)C(=N)N1CCCCCC1	62.5
Cc1ccc(C(=O)O)cc1NC(=S)NC(=O)Cc1ccccc1	6.02
CCOc1ccc(-c2cc(C(=O)NCCCN3CCCC3)c3ccccc3n2)cc1	-19.4
Cl.O=[N+]([O-])c1ccc(O)c(Nc2ncnc3ccc(Br)cc23)c1	25.3
COc1ccc(N(C(=O)COc2ccc(F)cc2)S(=O)(=O)c2ccc(C)cc2)cc1	0.866
CC1CCCN(c2ccc(C(=O)NCc3ccccc3)cn2)C1 (stereo not drawn)	-18.4
COc1ccc(-c2nn(-c3ccccc3C)cc2CNC(C)c2cn(C)nc2C)cc1F (stereo not drawn)	-1.99
COc1cccc(/C=N/n2c(-c3n[nH]c4c3CCC4)n[nH]c2=S)c1O	30.3
O=C(c1ccco1)N1CCN(C(=O)C(c2ccccc2)c2ccccc2)CC1	-23.4
O=C1NC(c2ccc(-c3ccccc3[N+](=O)[O-])o2)C(C(=O)c2ccccc2)C(O)(C(F)(F)F)N1 (stereo not drawn)	-10
CC1CCCN(C(=O)CN2C(=O)CSc3ccc(S(=O)(=O)N4CCOCC4)cc32)C1 (stereo not drawn)	3.68
CCOC(=O)N1c2ccccc2C=CC1OCC (stereo not drawn)	19.3
COc1cc(C)nc(NC(=O)COc2ccc(Cl)cc2C)n1	2.34
CCC(CC)C(=O)Nc1nnc(S(=O)(=O)N2CCCC2)s1	-6.42
Nc1ccc(-c2nnc(-c3ccc(-c4ccccc4)cc3)o2)cc1	4.31
COc1cc(C(=O)Nc2nc(-c3ccc(C)cc3)cs2)ccc1OCC(=O)N1CCOCC1	-18.9
Cn1c(SCc2nc3ccccc3n2CCO)nc2ccccc21	-5.04
NS(=O)(=O)c1cccc(NC(=O)CSc2nnc(C3CC3)n2Cc2ccccc2)c1	-2.84
COc1ccc(C(CC(=O)O)NC(=O)Nc2ccccc2)cc1OC (stereo not drawn)	7.84
CN(C)/C=c1\sc2c(C#N)cc(C(=O)c3ccc(Br)cc3)n2c1=O	-12.5
